Test results from the supplement of paper PMC3334620.
The full ranking holds about 33,000 sequences; the median of “E-score (-0.5 to 0.5)” is about -0.056, and the highest 2% start at about 0.38. The list shows a part of the results.

Biological target: Stb4 (UniProt P50104)
Assay: PBM E-score (8-mer binding enrichment) (E-score (-0.5 to 0.5)); higher = stronger / more preferred TF binding; most listed sequences are background and not binding sites
Settings: protein concentration: 200 nM; construct: GST-DNA-binding domain
In short: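 GST-tagged yeast TFs (full-length or DNA-binding domain) were made by PURExpress in vitro transcription/translation and applied at about 100-200 nM to universal all-10-mer Agilent arrays. The arrays were made double-stranded by primer extension, on fresh or once-stripped slides. Bound protein was detected with fluorescent anti-GST, and scans were normalised with masliner. Each ungapped eight-base word, pooled with its reverse complement, received an E-score (modified Wilcoxon-Mann-Whitney statistic) from the Universal PBM Analysis Suite.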

| Sequence | PBM E-score |
| --- | --- |
| AGGCGCAC | -0.139 |
| AATGATAC | -0.023 |
| CACTTCAA | 0.113 |
| GGAAGGGA | 0.248 |
| ACGGCCGC | 0.162 |
| AGAAGGGA | -0.357 |
| GGAGGTTA | 0.0576 |
| AAACAACT | -0.0401 |
| AAAGAGGA | -0.0941 |
| GCCGAGCA | 0.357 |
| GTATATCA | 0.0826 |
| AAATTAGC | 0.0665 |
| CGGTCAGC | -0.00346 |
| CACCTCCC | 0.0238 |
| CTGCGTGC | -0.0566 |
| CCCTGCTC | -0.183 |
| GGAGACCA | 0.0477 |
| CTCTAGGC | -0.0912 |
| CCGGACGG | 0.311 |
| CACTGATC | -0.183 |
| CGCCCTTA | -0.0598 |
| CCTGAAAC | 0.0689 |
| AGGGTGAA | -0.074 |
| CATATTCA | -0.211 |
| CGGCATGA | 0.261 |

| Sequence | PBM E-score |
| --- | --- |
| CTTTACCC | 0.169 |
| GCATATAA | 0.0369 |
| CTCGCTCA | 0.0786 |
| CACATTGC | -0.122 |
| ATCGGATA | 0.467 |
| CTGCCTTA | -0.193 |
| CGTGATCC | 0.00416 |
| CTGGCGCC | -0.169 |
| CACCCTAC | -0.111 |
| CGGGGAGA | 0.137 |
| CCCTAAAG | -0.234 |
| CTGAGCTC | -0.172 |
| ATACGTGG | -0.226 |
| CGTAGAAG | -0.00783 |
| GGTTTGAC | 0.0931 |
| TAAATCCA | -0.168 |
| ATATCTGG | 0.0398 |
| ACTACGAC | -0.049 |
| CTTCATTC | -0.134 |
| CTCCGCAG | 0.0458 |
| TATTGCAA | 0.101 |
| CGCAAAAG | -0.116 |
| CGTACCTA | 0.0214 |
| CGACTCAC | 0.0516 |
| CATATCCC | 0.0584 |

| Sequence | PBM E-score |
| --- | --- |
| GGAAGCAC | 0.157 |
| AGGGGAAT | 0.0637 |
| CTAGAGAA | -0.231 |
| CTTAGAGA | -0.159 |
| AAGCAAGG | -0.0669 |
| AACCTCAG | 0.0119 |
| TACCAGGA | 0.0625 |
| TAAAGTCA | 0.0429 |
| ATGTAGCA | -0.2 |
| ACTATATG | -0.134 |
| TTAGTGAA | -0.138 |
| CAAGGCCC | -0.0273 |
| AGAATCGG | 0.286 |
| CAAAAGAC | -0.18 |
| GATGCCCA | 0.168 |
| GAGGATGC | -0.0384 |
| CAGAGCAC | -0.106 |
| GATCTGGC | 0.00732 |
| GGGGGCAC | -0.0702 |
| ATCGGTGG | 0.0038 |
| ATCCGATG | 0.437 |
| CCCCTTCC | 0.0331 |
| ATTCACAA | -0.0973 |
| ACTAAAGG | -0.271 |
| GAATGGGC | 0.0973 |

| Sequence | PBM E-score |
| --- | --- |
| CGCACGCG | -0.0467 |
| GATAAGGC | 0.0112 |
| AAAAGGCG | -0.0778 |
| CCTAATCC | -0.103 |
| AATAAATC | -0.105 |
| GAGTTGAA | 0.156 |
| CATACGAA | -0.102 |
| CTTCCCGC | 0.2 |
| GTCCCCTA | -0.272 |
| AGTGAACT | -0.0504 |
| AGGGCCCA | -0.181 |
| ACCCATCA | -0.194 |
| AACTGGCT | -0.157 |
| AGAGCGGG | -0.0101 |
| CGAAGGCC | 0.105 |
| CGGGGTTA | 0.289 |
| GGTTGCGA | 0.0364 |
| ATAGCAAT | -0.185 |
| AATGTTGC | 0.0379 |
| AAGTTGCG | -0.0322 |
| CAGGCACG | -0.0111 |
| CCCGCTCC | 0.0537 |
| AGATTGGC | -0.0359 |
| AAGGCCGC | -0.166 |
| AGAGCAGG | -0.158 |

| Sequence | PBM E-score |
| --- | --- |
| TATCGAGA | -0.0745 |
| ACAAGACT | -0.144 |
| CCCAGGGG | -0.298 |
| GGTAGCCA | 0.0206 |
| CAGGATAC | -0.198 |
| AATCATAT | -0.0393 |
| CTGTGTAA | -0.165 |
| TAGGGAAA | -0.185 |
| AAGCCTCC | -0.152 |
| GTGACAAC | 0.00513 |
| CTTTCATA | 0.00582 |
| AAAATAGG | 0.0861 |
| CCGGCGCC | 0.218 |
| GAGATGAA | 0.0136 |
| GCTAGAGA | -0.149 |
| ACGGTTCG | 0.173 |
| CGACTCTC | 0.0134 |
| GAAAGACC | 0.148 |
| CTTGATTA | -0.203 |
| ATAGAGTG | 0.00353 |
| CTATATCA | -0.0348 |
| GGTGGACA | -0.00582 |
| AAATTCGG | 0.389 |
| AAAATGTA | -0.0261 |
| ACGTTCGA | -0.284 |

| Sequence | PBM E-score |
| --- | --- |
| AGATGAAC | -0.0339 |
| ATGACCAG | -0.0765 |
| ATGTACAC | -0.186 |
| CCCGGGGC | 0.239 |
| CCCTGACG | -0.0312 |
| CACGCGGA | 0.227 |
| GAACCATC | 0.0577 |
| GCGGATAA | 0.403 |
| AACTCAGT | -0.091 |
| GACCAAAA | -0.0214 |
| TACACAAA | 0.0542 |
| CCACCCAG | -0.0329 |
| AACTACAC | -0.128 |
| CCGCCAAA | 0.12 |
| AATAGCTA | -0.00017 |
| CCTGTGAA | -0.125 |
| GCTCTTAA | -0.105 |
| GGGGTAGA | -0.00576 |
| GTATGGAA | -0.0916 |
| GATAGTCA | -0.0515 |
| ATCTATAA | -0.0984 |
| AAAGCATA | 0.0507 |
| CATATTCC | 0.138 |
| CAGGTACA | -0.102 |
| GGGCTCCA | -0.32 |

| Sequence | PBM E-score |
| --- | --- |
| CTTCGAGC | 0.147 |
| AAAATCTC | -0.0526 |
| GCCAAGAC | -0.268 |
| CTGACCAC | -0.0941 |
| ATTCGCCA | -0.0151 |
| ATTGGCTG | -0.167 |
| GGATTCAC | 0.0333 |
| AGGCCTCC | -0.095 |
| CGGCTCAA | 0.258 |
| TATTGTAA | -0.174 |
| TCACCTCA | -0.236 |
| AGCCCTAG | -0.194 |
| GCTAACCA | 0.00902 |
| CGTGATGA | -0.235 |
| ATGCTAAT | -0.149 |
| CATTAAAA | 0.105 |
| GGAGGCCC | -0.0916 |
| CGCCGGGC | 0.211 |
| AAGTCGCT | -0.13 |
| GAGCTTAC | 0.0515 |
| GTTACTAA | -0.00315 |
| CTGTTCGC | -0.109 |
